{"source": "PubChem BioAssay AID1159614", "about": "(National Center for Advancing Translational Sciences (NCATS), 2016)", "note": "About 65 (0.1%) of roughly 45,000 compounds were called active. The call rests on the fitted dose curve; in most records, active means well fitted activation curve with a large enough effect; inconclusive means small, poorly fitted or top-dose-only effect; inactive means no such curve, though single readings can be large or run the other way. The list shows a part of the results. Potency means the concentration at half of the fitted maximal effect."}
{"biological_target": "Galactocerebrosidase (Homo sapiens) (UniProt P54803)", "sequence (P54803 whole entry, looked up)": "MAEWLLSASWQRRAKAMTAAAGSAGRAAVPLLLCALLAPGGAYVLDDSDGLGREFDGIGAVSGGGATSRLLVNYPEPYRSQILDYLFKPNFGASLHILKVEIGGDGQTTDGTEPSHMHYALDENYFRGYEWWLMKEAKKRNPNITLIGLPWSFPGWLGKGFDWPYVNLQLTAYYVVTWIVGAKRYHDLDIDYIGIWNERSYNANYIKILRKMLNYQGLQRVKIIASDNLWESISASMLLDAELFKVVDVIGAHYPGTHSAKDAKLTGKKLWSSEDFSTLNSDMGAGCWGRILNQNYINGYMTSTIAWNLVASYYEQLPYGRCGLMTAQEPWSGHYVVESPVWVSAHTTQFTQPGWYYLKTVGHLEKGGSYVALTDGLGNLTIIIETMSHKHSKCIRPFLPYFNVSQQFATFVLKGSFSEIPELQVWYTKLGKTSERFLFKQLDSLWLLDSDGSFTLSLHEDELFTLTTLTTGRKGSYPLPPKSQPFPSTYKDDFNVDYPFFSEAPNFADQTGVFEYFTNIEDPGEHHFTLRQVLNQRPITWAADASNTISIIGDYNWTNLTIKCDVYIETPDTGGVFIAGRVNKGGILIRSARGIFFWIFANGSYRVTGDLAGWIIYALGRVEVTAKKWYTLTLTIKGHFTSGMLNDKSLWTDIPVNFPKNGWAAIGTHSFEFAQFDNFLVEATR", "experiment": "A Novel Cell-Based Assay to Identify Small Molecules for B -Galactocerebrosidase; further: nearly all actives have a fitted effect of over 65% in size; on activation: 0% is about no effect", "settings": "145M-Twi-hGALC-G270D cells (Twitcher mouse brain line with human GALC G270D), HMU-beta-Gal fluorescence, 48 h; series mostly up to 57.5 µM; activation: at the top concentration", "summary_of_the_method": "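Mutant human GALC (G270D), stably expressed in a Twitcher mouse brain cell line lacking endogenous GALC, is measured in live-treated cells via 6-hexadecanoylamino-4-methylumbelliferyl-β-galactoside hydrolysis (0.1 mM final, pH 5.2) with fluorescent detection.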"}
{"smiles": "Cc1ccc(-n2nc(C)c3c(C)c(CCC(=O)NCc4ccc(Cl)cc4)c(C)nc32)cc1", "activation": "inactive: -17.9%"}
{"smiles": "COc1ccc(-c2nc3ccccc3s2)cc1NC(=O)c1cccc(F)c1", "activation": "inactive: -20.6%"}
{"smiles": "CCCOc1ccc(CN2C(=O)C(=O)c3cccc(C)c32)cc1", "activation": "inactive: -13.5%"}
{"smiles": "Cc1ccc(NC(=O)c2ccc(N(Cc3ccccc3)S(C)(=O)=O)cc2)cc1", "activation": "inactive: 4.26%"}
{"smiles": "CC(C)c1ccc(C2=NC(c3ccncc3)=Nc3ccc(F)cc3N2)cc1", "activation": "inactive: -17.2%"}
{"smiles": "O=C(Nc1nc2c(s1)CCCC2)c1ccccc1F", "activation": "inactive: -19%"}
{"smiles": "CCC1CCc2c(sc(NC(=O)C3c4ccccc4Oc4ccccc43)c2C(=O)OC)C1", "note": "(centres undefined)", "activation": "inactive: -1.04%"}
{"smiles": "CCOC(=O)N1CCC(NC(=O)c2ccc3c(c2)N(Cc2ccc(Cl)cc2)C(=O)c2ccccc2S3(=O)=O)CC1", "activation": "inactive: -1.6%"}
{"smiles": "Cc1ccc(C(=O)c2oc3ccccc3c2NC(=O)C(C)Oc2ccccc2Cl)cc1", "note": "(centres undefined)", "activation": "inactive: -0.713%"}
{"smiles": "CCCn1cc(S(=O)(=O)c2ccc(CC)cc2)c(=O)c2cc(F)c(N3CCN(C)CC3)cc21", "activation": "inactive: -17.8%"}
{"smiles": "CCOc1ccc(Cn2c(CNS(=O)(=O)c3ccc(CC)cc3)nc3cccnc32)cc1", "activation": "inactive: -2.57%"}
{"smiles": "CCOC(=O)c1c(S(=O)(=O)N2CCN(c3cccc(C(F)(F)F)c3)CC2)c(C)n(C)c1C", "activation": "inactive: -9.59%"}
{"smiles": "CNC(=O)c1ccc2nc(Cc3ccccc3)oc2c1", "activation": "inactive: -12%"}
{"smiles": "COc1ccc(OC)c(CCNC(=O)c2nn(C)c3c2CSc2ccccc2-3)c1", "activation": "inactive: -7.09%"}
{"smiles": "O=C(Nc1ccc(Br)cc1F)c1cc2nc(-c3ccco3)cc(C(F)(F)Cl)n2n1", "activation": "inactive: -0.456%"}
{"smiles": "Cc1cc(Br)ccc1NC(=O)CCNS(=O)(=O)c1cccc2nonc12", "activation": "inactive: -12.7%"}
{"smiles": "COc1ccc(NC(=O)c2c(NCc3cccs3)sc3c2CCCCC3)c(OC)c1", "activation": "inactive: -13.6%"}
{"smiles": "CCOc1ccc(OCC)c(Nc2nc3ccc(C(=O)c4ccccc4)cc3n3cnnc23)c1", "activation": "inactive: -16.6%"}
{"smiles": "COc1ccc2c(c1)CC(C(=O)Nc1ccc(OC)cc1OC)CO2", "note": "(centres undefined)", "activation": "inactive: -9.07%"}
{"smiles": "O=S(=O)(c1ccc(OC(F)(F)F)cc1)N1CCC(c2nc3ccccc3s2)CC1", "activation": "inactive: -2.13%"}
{"smiles": "CCCOc1ccc2nc(NC(=O)OC)[nH]c2c1", "activation": "inactive: -7.49%"}
{"smiles": "O=C(Cn1cc(SCc2ccccc2F)c2ccccc21)N1CCCC1", "activation": "inactive: -13.7%"}
{"smiles": "Cn1c(=O)c2cc(C(=O)Nc3cccc(C#N)c3)sc2c2ccccc21", "activation": "inactive: -11.4%"}
{"smiles": "COc1ccc(C2=NN(CC(=O)NCCc3ccccc3)C(=O)CC2)cc1", "activation": "inactive: -19.6%"}
{"smiles": "CCC(=O)Nc1ccccc1-c1nc2ccccc2n(CC(=O)Nc2ccc(C)c(C)c2)c1=O", "activation": "inactive: 0.803%"}
{"smiles": "CCCCOc1ccc(OCCCN2CCOCC2)cc1", "activation": "inactive: -5.92%"}
{"smiles": "CCc1ccc(NC(=O)C2CCN(S(=O)(=O)c3c(C)noc3C)CC2)cc1", "activation": "inactive: -18.7%"}
{"smiles": "O=C(NC1CCCC1)c1ccc(CSc2nc3cccnc3n2Cc2ccccc2)cc1", "activation": "inactive: -6.76%"}
{"smiles": "O=C(NCc1ccccc1)c1ccc2c(c1)N(Cc1ccc(F)cc1)CCS2", "activation": "inactive: -5.32%"}
{"smiles": "COc1ccc(CCNC(=O)CSCc2nc(-c3cccc(C)c3)oc2C)cc1OC", "activation": "inactive: -9.12%"}
{"smiles": "COc1ccc(Cl)cc1NC(=O)c1sc2nc(-c3ccc(OC)c(OC)c3)ccc2c1N", "Potency": "active: 11.2 µM"}
{"smiles": "COC(=O)c1ccc(NC(=O)NC(C)c2c(-n3cccc3)sc(C)c2C)cc1", "note": "(centres undefined)", "activation": "inactive: -9.55%"}
{"smiles": "CCCNC(=O)C1CCC(Cn2c(=O)c3sccc3n(CC(=O)N3CCCC3)c2=O)CC1", "note": "(centres undefined)", "activation": "inactive: -6.49%"}
{"smiles": "CCc1cccc(C)c1NC(=O)CN1C(=O)c2ccccc2Sc2ncccc21", "activation": "inactive: -9.36%"}
{"smiles": "COC(=O)c1sc2cccc(F)c2c1S(=O)(=O)Nc1cc(C)c(Cl)cc1OC", "activation": "inactive: -8.96%"}
{"smiles": "O=C(COc1ccc(Cl)cc1)Nc1ccc(-c2nc3cc(Cl)ccc3o2)c(O)c1", "activation": "inactive: -7.42%"}
{"smiles": "CCc1ccc(S(=O)(=O)c2nnn3c2nc(N2CCC(C(N)=O)CC2)c2cc(Cl)ccc23)cc1", "activation": "inactive: -0.197%"}
{"smiles": "Cc1c(C(=O)Nc2cccc(C#N)c2)sc2nc3n(c(=O)c12)CCCCC3", "activation": "inactive: -12.2%"}
{"smiles": "COc1ccc(CNC(=O)c2cc3oc4ccccc4c3n2C)cc1OC", "activation": "inactive: -20.8%"}
{"smiles": "CCCNC(=O)CN1C(=O)c2c(c3ccccc3n2C)C1c1ccc(OC)cc1", "note": "(centres undefined)", "activation": "inactive: -2.92%"}
{"smiles": "CN[C@@H]1[C@@H](O)[C@@H](O[C@@H]2[C@H](O)[C@H](O[C@H]3OC(CN)=CC[C@H]3N)[C@@H](N)C[C@H]2N)OCC1(C)O", "note": "(some centres undefined)", "activation": "inactive: -13.7%"}
{"smiles": "CCCC(=O)n1nc(-c2cccnc2)nc1NCc1ccccc1", "activation": "inactive: -15.4%"}
{"smiles": "CCc1ccccc1NC(=O)Cn1c(=O)n(CCc2ccccc2)c(=O)c2ccccc21", "activation": "inactive: -6.36%"}
{"smiles": "CCOc1ccc(NC(=O)CCC(=O)N2CCSc3ccccc32)cc1", "activation": "inactive: -17.3%"}
{"smiles": "COc1ccc(Cn2c(CCC(=O)Nc3ccc(OC)c(Cl)c3)nc3cccnc32)cc1", "activation": "inactive: -22.5%"}
{"smiles": "COc1ccc(N2CCN(C(=O)Nc3ccccc3Cl)CC2)cc1", "activation": "inactive: -1.14%"}
{"smiles": "Clc1ccccc1-c1nnc(SCc2nc(-c3ccccc3)no2)n1-c1ccccc1", "activation": "inactive: -16.1%"}
{"smiles": "O=C(NCCc1ccc(Cl)cc1)c1ccc(CSCc2ccc(Cl)cc2)o1", "activation": "inactive: -14.5%"}
{"smiles": "CCOC(=O)N1CCN(S(=O)(=O)N2CCCC(C(=O)NCc3ccc(OC)cc3OC)C2)CC1", "note": "(centres undefined)", "activation": "inactive: 1.33%"}
